Where a name gives a salt, the structure may show the parent alone. The list shows a part of the results. The data scatter; read single values as rough.
Each compound was assayed on SUM159 (assay: ALDHbr (CSC) cell proportion score relative to DMSO vehicle (ratio to DMSO); breast (SUM159) / gastric (MKN45) / pancreatic (PANC1) / colon cancer lines; ALDHbr cells have high ALDH activity and are rich in cancer stem cells (CSC); higher = more CSC (ALDHbr) cells remaining). Conditions: 10 µM; 72 h.
Compound `CNC[C@H](O)[C@@H](O)[C@H](O)[C@H](O)CO` [Meglumine] has an ALDHbr of 1.16.
Work on `CCN(CC)CCNC(C(=O)OCCC(C)C)c1ccccc1` (stereo not drawn) [Camylofine chlorhydrate] yielded an ALDHbr of 0.934.
For `O=C1[C@H]2CCCC[C@H]2C(=O)N1CCCCN1CCN(c2nsc3ccccc23)CC1` [Perospirone], the ALDHbr was 0.45.
`N=C(N)NC(=O)Cc1c(Cl)cccc1Cl` [Guanfacine hydrochloride] gave an ALDHbr of 1.26.
`CCc1cc(C(N)=S)ccn1` [Ethionamide] was tested, and the ALDHbr was 1.29.
With `C[C@@H]1C[C@H]2[C@@H]3C[C@H](F)C4=CC(=O)C=C[C@]4(C)[C@@]3(F)[C@@H](O)C[C@]2(C)[C@@]1(O)C(=O)CO` [Flumethasone] the ALDHbr was 1.24.
`CC(CCc1ccccc1)NCC(O)c1ccc(O)c(C(N)=O)c1` (stereo not drawn) [Labetalol hydrochloride] showed an ALDHbr of 1.41.
Work on `CCn1cc(C(=O)O)c(=O)c2cnc(N3CCNCC3)nc21` [Pipemidic acid] yielded an ALDHbr of 1.03.
With `Cc1noc(NS(=O)(=O)c2ccc(N)cc2)c1C` [Sulfisoxazole] the ALDHbr was 1.01.
`CC1CCc2c(N3CCC(O)CC3)c(F)cc3c(=O)c(C(=O)O)cn1c23` (stereo not drawn) [Nadifloxacin] showed an ALDHbr of 0.966.
Compound `CC(=O)OCC(=O)[C@@]12OC(C)(C)O[C@@H]1C[C@H]1[C@@H]3C[C@H](F)C4=CC(=O)C=C[C@]4(C)[C@@]3(F)[C@@H](O)C[C@@]12C` [Fluocinonide] has an ALDHbr of 1.32.
`CCN[C@H]1CN(CCCOC)S(=O)(=O)c2sc(S(N)(=O)=O)cc21` [Brinzolamide] was tested, and the ALDHbr was 1.19.
`NC(=O)OCC(COC(N)=O)c1ccccc1` [Felbamate] showed an ALDHbr of 1.07.
`CCCC(=O)Nc1ncnc2c1ncn2[C@@H]1O[C@@H]2COP(=O)(O)O[C@H]2[C@H]1OC(=O)CCC` [Bucladesine sodium salt] was tested, and the ALDHbr was 1.01.
Work on `C/C(=C\C(=O)OCCCCCCCCC(=O)O)C[C@@H]1OC[C@H](C[C@@H]2O[C@H]2[C@@H](C)[C@H](C)O)[C@@H](O)[C@H]1O` [Mupirocin] yielded an ALDHbr of 1.1.
`CC#C[C@]1(O)CC[C@H]2[C@@H]3CCC4=CC(=O)CCC4=C3[C@@H](c3ccc(N(C)C)cc3)C[C@@]21C` [Mifepristone] showed an ALDHbr of 0.213.
`CC(C)NCC(O)c1ccc(NS(C)(=O)=O)cc1` (stereo not drawn) [Sotalol hydrochloride] showed an ALDHbr of 1.18.
Compound `C[C@@H]1CN(c2c(F)c(N)c3c(=O)c(C(=O)O)cn(C4CC4)c3c2F)C[C@H](C)N1` [Sparfloxacin] has an ALDHbr of 0.773.
In the case of `CN1CCC(=C2c3ccccc3CCc3sccc32)CC1` [Pizotifen malate], the ALDHbr is reported as 0.619.
In the case of `CC1=C(/C=C/C(C)=C/C=C/C(C)=C/C(=O)O)C(C)(C)CCC1` [Retinoic acid], the ALDHbr is reported as 0.0693.
Compound `C[C@H](CS)C(=O)N1CCC[C@H]1C(=O)O` [Captopril] has an ALDHbr of 0.964.
For `CC(C)COCC(CN(Cc1ccccc1)c1ccccc1)N1CCCC1` (stereo not drawn) [Bepridil hydrochloride], the ALDHbr was 0.515.
`CCC1=C(C)CN(C(=O)NCCc2ccc(S(=O)(=O)NC(=O)N[C@H]3CC[C@H](C)CC3)cc2)C1=O` [Glimepiride] gave an ALDHbr of 0.942.
Compound `O=C(O)COCCN1CCN(C(c2ccccc2)c2ccc(Cl)cc2)CC1` (stereo not drawn) [Cetirizine dihydrochloride] has an ALDHbr of 1.05.
With `C[N+]1(C)CCC(OC(=O)C(O)(c2ccccc2)C2CCCC2)C1` (stereo not drawn) [Glycopyrrolate] the ALDHbr was 1.17.
With `CN1CCCN=C1/C=C/c1cccc(O)c1` [Oxantel pamoate] the ALDHbr was 0.799.
For `CCC1(c2ccccc2)C(=O)NCNC1=O` [Primidone], the ALDHbr was 1.1.
With `N[C@H]1CONC1=O` [(S)-(-)-Cycloserine] the ALDHbr was 1.16.
Compound `Nc1nc2c(ncn2COC(CO)CO)c(=O)[nH]1` [Ganciclovir] has an ALDHbr of 1.04.
`COc1cc(C(=O)OCCCN2CCCN(CCCOC(=O)c3cc(OC)c(OC)c(OC)c3)CC2)cc(OC)c1OC` [Dilazep dihydrochloride] was tested, and the ALDHbr was 0.368.
`O=C1OCCN1/N=C/c1ccc([N+](=O)[O-])o1` [Furazolidone] gave an ALDHbr of 0.328.
Work on `Clc1cc(Cl)c(OCC#CI)cc1Cl` [Haloprogin] yielded an ALDHbr of 0.66.
`CC[C@]12CCCN3CCc4c(n(c5ccccc45)[C@@](O)(C(=O)OC)C1)[C@@H]32` [Vincamine] gave an ALDHbr of 0.821.

Reference: the supplement of paper PMC11880418
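Note: High-content imaging of ALDEFLUOR-stained cells with Hoechst-labelled nuclei in 384-well plates, triplicate wells, scored as Z-score against 0.1% DMSO vehicle, negative meaning fewer ALDHbr cells.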
